# From the antibiotic and cytotoxicity screens of Wong et al. (2023)
# Some of the results follow.
# Legend:
# [1] = test system: HSkMC (human skeletal muscle cells); assay: cytotoxicity call (relative viability < 0.9); conditions: 10 µM
# [2] = test system: HepG2; assay: cytotoxicity call (relative viability < 0.9); conditions: 10 µM
# [3] = test system: S. aureus RN4220; assay: growth inhibition call (relative growth <= 0.2); conditions: 50 µM
Structure (SMILES),cytotoxicity call [1],cytotoxicity call [2],growth inhibition call [3]
C[C@H](CO)N1C[C@H](C)[C@H](CN(C)C(=O)Nc2cccc3ccccc23)Oc2ccc(NS(=O)(=O)c3ccc(F)cc3)cc2CC1=O,inactive,inactive,inactive
C[C@@H]1CN([C@H](C)CO)C(=O)Cc2cc(NC(=O)Nc3ccc4c(c3)OCO4)ccc2O[C@@H]1CN(C)C(=O)Nc1cccc2ccccc12,inactive,inactive,inactive
Nc1ncnc2c1ncn2[C@H]1O[C@@H](CO)C[C@@H]1O,inactive,inactive,inactive
C[C@@H]1CN([C@H](C)CO)C(=O)Cc2cc(NC(=O)NC3CCCCC3)ccc2O[C@@H]1CN(C)C(=O)Nc1ccc(C(F)(F)F)cc1,inactive,inactive,inactive
C[C@@H]1CN([C@@H](C)CO)C(=O)c2cc(NC(=O)Nc3cccc4ccccc34)ccc2O[C@@H]1CN(C)S(=O)(=O)c1ccccc1,inactive,inactive,inactive
COc1ccc2c3c(n(c2c1)C)[C@H](CO)N(Cc1cc(cc(c1)OC)OC)C[C@]13CCN(CC1)C(=O)Nc1cccc(c1)F,inactive,inactive,inactive
COc1ccc(C#Cc2ccc([C@@H]3[C@H]4CN(S(=O)(=O)c5cn(C)cn5)CCCCN4[C@H]3CO)cc2)cc1,inactive,inactive,inactive
COc1cc2c(cc1-c1coc3c4c(c(OC)cc3c1=O)OC(C)(C)CC4)OCO2,inactive,inactive,inactive
C[C@@H]1CN([C@H](C)CO)C(=O)c2cc(NC(=O)Nc3cccc4ccccc34)ccc2O[C@@H]1CN(C)CC1CCCCC1,inactive,active,inactive
C[C@H]1CN([C@@H](C)CO)C(=O)c2cccc(NC(=O)c3cnccn3)c2O[C@@H]1CN(C)S(=O)(=O)c1cn(C)cn1,inactive,inactive,inactive
C[C@H]1CN([C@@H](C)CO)C(=O)Cc2cc(NS(=O)(=O)c3ccc(F)cc3)ccc2O[C@H]1CN(C)S(=O)(=O)c1cn(C)cn1,inactive,inactive,inactive
COc1ccc(S(=O)(=O)N(C)C[C@@H]2Oc3c(NC(=O)Nc4cccc5ccccc45)cccc3C(=O)N([C@H](C)CO)C[C@@H]2C)cc1,inactive,inactive,inactive
C[C@H]1CCCCO[C@@H](CN(C)CC2CCCCC2)[C@@H](C)CN([C@@H](C)CO)C(=O)c2cc(NC(=O)Nc3ccc4c(c3)OCO4)ccc2O1,active,active,inactive
C[C@H]1CN([C@@H](C)CO)C(=O)Cc2cc(NC(=O)Nc3ccc(C(F)(F)F)cc3)ccc2O[C@H]1CN(C)Cc1ccc(C(F)(F)F)cc1,active,active,inactive
Cc1cc(C(=O)NN)nn1C,inactive,inactive,inactive
O=C(c1ccc(Cl)cc1)c1coc2c1cc(O)c1ccccc12,active,active,inactive
C[C@@H]1CN([C@H](C)CO)C(=O)c2cc(NC(=O)c3ccccc3)ccc2O[C@@H](C)CCCCO[C@@H]1CN(C)Cc1ccc(C(=O)O)cc1,inactive,inactive,inactive
C[C@H](CO)N1C[C@H](C)[C@H](CN(C)C(=O)Nc2cccc(Cl)c2Cl)OCc2ccccc2-c2c(n(C)c3ccccc23)C1=O,inactive,inactive,inactive
C[C@H]1CN([C@@H](C)CO)C(=O)c2cc(NC(=O)Nc3cccc4ccccc34)ccc2O[C@@H]1CN(C)C(=O)NC1CCCCC1,inactive,inactive,inactive
Cc1noc(C)c1S(=O)(=O)Nc1ccc2c(c1)C(=O)N([C@H](C)CO)C[C@@H](C)[C@@H](CN(C)S(=O)(=O)c1cn(C)cn1)OCCCC[C@@H](C)O2,inactive,inactive,inactive
C[C@@H]1CN([C@H](C)CO)C(=O)c2cccc(NC(=O)C3CCCCC3)c2O[C@H]1CN(C)Cc1ccc(Cl)c(Cl)c1,inactive,inactive,inactive
COc1ccccc1CNC(=O)C[C@@H]1C[C@@H]2c3cc(NC(=O)NC4CCCC4)ccc3O[C@@H]2[C@@H](CO)O1,inactive,inactive,inactive
CN(C)CC(=O)N[C@@H]1CC[C@H](CCNC(=O)C2CC2)O[C@@H]1CO,inactive,inactive,inactive
CN1C(=O)C[C@H](C(=O)O)[C@H]1c1cccnc1,inactive,inactive,inactive
Cc1ccc(S(=O)(=O)Nc2cccc3c2O[C@H](CN(C)C(=O)Nc2cccc4ccccc24)[C@@H](C)CN([C@H](C)CO)C3=O)cc1,inactive,inactive,inactive
C[C@@H]1CN([C@@H](C)CO)C(=O)c2cccc(NC(=O)c3nc4ccccc4s3)c2O[C@H]1CN(C)S(=O)(=O)c1cn(C)cn1,inactive,inactive,inactive
